Source: PubChem BioAssay (Tox21)
Where “and” joins values, the source holds several entries; their conditions need not be identical. Equal values may be shown once. The inconclusive results got no clear call from the source; some entries with a clear call stand among them for comparison. Where the call is inconclusive, the potency comes from a doubtful curve fit. Some compounds were tested as several samples or in several runs, with calls that do not always agree. Calls of active or inactive are those of the source. The call rests on the fitted dose curve; in most records, active means well fitted curve in the direction sought with a large enough effect in the repeat runs; inconclusive means weak or mixed curves; inactive means no such curve, though single readings can be large; an effect the other way counts as inactive or inconclusive.

test: qHTS RealTime-Glo MT Cell Viability Assay in HEK293 cells - 32 hour (AID 1224868); settings: RealTime-Glo luminescence; series mostly up to 76.8 µM; further: nearly all actives have a fitted effect of over 50% in size
Summary of the method: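 Quantitative high-throughput screen of the Tox21 10K library in HEK293: cells and RealTime-Glo reagents plated together, compound added at 5 h, luminescence monitored through 40 h at 37 C.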
Potency means the concentration at half of the fitted maximal effect; tags describe the fitted curve by direction and shape.

| Structure (SMILES) | Potency |
| --- | --- |
| CCNC(=O)NCc1cccc(Cl)c1 | inactive |
| O=c1c(-c2ccc(O)cc2)coc2cc(O)cc(O)c12 | inconclusive: 19.2 µM [cytotoxic, partial curve] and inconclusive: 15.1 µM [cytotoxic, partial curve] |
| COc1cc(N)c(Cl)cc1C(=O)NC1CCN(CCCOc2ccc(F)cc2)CC1OC (stereo not drawn) | active: 3.01 µM |
| CC(=O)Oc1ccc(C(=C2CCCCC2)c2ccc(OC(C)=O)cc2)cc1 | inactive |
| CCCCCCCCS(=O)C(C)Cc1ccc2c(c1)OCO2 (stereo not drawn) | inconclusive: 56 µM [cytotoxic, single point] |
| C=CC(=O)OCCCCCCCC(C)C | inconclusive: 34.7 µM [rising, partial curve] |
| Cc1cc2c(OCC(CNC(C)(C)C)OC(=O)c3ccccc3)cccc2[nH]1 (stereo not drawn) | inconclusive: 15.1 µM [cytotoxic, full curve] |
| CCC1(CO)COCOC1 | inactive |
| O=C=Nc1cccc(C(F)(F)F)c1 | inconclusive: 54.6 µM [cytotoxic, single point] |
| Cc1ccc(Nc2c(F)cccc2Cl)c(CC(=O)O)c1 | inactive |
| COC(=O)c1ccccc1 | active: 11 µM |
| O=C1OC(=O)c2c(Br)c(Br)c(Br)c(Br)c21 | inactive |
| CO/N=C(/C(=O)N[C@@H]1C(=O)N2C(C(=O)O)=C(COC(N)=O)CS[C@H]12)c1ccco1 | inactive |
| COC(=O)c1c(C)cc(O)c(C)c1O | inconclusive: 54.9 µM [cytotoxic, single point] |
| Clc1nc2ccccc2nc1Cl | inconclusive: 15.7 µM [rising, partial curve] |
| CCCCCCCCN | inactive |
| NCCO | inconclusive: 54.9 µM [rising, partial curve, poor fit] |
| CCOc1ccc2[nH]cc(C(=O)NCc3ccccc3)c(=O)c2n1 | inactive |
| CCCCCCCC/C=C\CCCCCCCCCCCC(=O)O | inconclusive: 31.4 µM [rising, partial curve, poor fit] |

| Structure (SMILES) | Potency |
| --- | --- |
| CCOC(=O)C1OC1c1ccccc1 (stereo not drawn) | inconclusive: 22.3 µM [rising, partial curve] and inconclusive: 30.9 µM [rising, partial curve] |
| CC(C)C(O)(c1ccc(OC(F)(F)F)cc1)c1cncnc1 (stereo not drawn) | inconclusive: 43.5 µM [cytotoxic, partial curve] |
| NNCCc1ccccc1 | inconclusive: 55.1 µM [cytotoxic, single point] |
| Nc1nc(N)nc(-c2ccccc2)n1 | inactive |
| C=C[C@H]1CN2CC[C@H]1C[C@@H]2[C@@H](O)c1ccnc2ccc(OC)cc12 | inconclusive: 26.8 µM [cytotoxic, partial curve, poor fit] |
| NC(N)=Nc1nc(CSCC/C(N)=N/S(N)(=O)=O)cs1 | inactive |
| O=C1OC[C@H](Cc2cccc(O)c2)[C@H]1Cc1cccc(O)c1 | inactive |
| CC(CN(C)C)CN1c2ccccc2CCc2ccccc21 (stereo not drawn) | inconclusive: 19 µM [cytotoxic, partial curve] |
| CCN(CC)CCCN(c1ccccc1)C1Cc2ccccc2C1 | inconclusive: 19 µM [cytotoxic, partial curve] |
| O=C1CC2CC1C1CCCC21 (stereo not drawn) | inactive |
| CCCCOc1ccc(OCCCN2CCOCC2)cc1 | inconclusive: 21.3 µM [cytotoxic, partial curve, poor fit] |
| CN(C)CCOc1ccccc1Cc1ccccc1 | inconclusive: 26.8 µM [cytotoxic, partial curve, poor fit] |
| CC1=C(C=O)C(C)(C)CCC1 | inconclusive: 21.9 µM [rising, single point] |
| CCN(CC)CCOC(=O)C(Cc1cccc2ccccc12)CC1CCCO1 (stereo not drawn) | inconclusive: 15.1 µM [cytotoxic, partial curve] |
| CCCCCCC(CCCCCCCCCCC(=O)OCC(COC(C)=O)OC(C)=O)OC(C)=O (stereo not drawn) | inactive |
| OC(CCN1CCCC1)(c1ccccc1)C1CCCCC1 (stereo not drawn) | inactive |
| CC(C)(O)c1ccc(CNC(=O)c2cccnc2Oc2ccc3nonc3c2)cc1 | inconclusive: 43.6 µM [cytotoxic, partial curve] |
| CC(C)C=O | inactive |
| C=COCC(C)C | inconclusive: 60.1 µM [cytotoxic, single point] |

test: A CellTox Green Cytotoxicity Assay to monitor cytotoxicity in HEK293 cells - 0 hour (AID 1224869); settings: CellTox Green fluorescence; series mostly up to 76.8 µM; further: nearly all actives have a fitted effect of over 50% in size
Summary of the method: (§1)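 Tox21 screen in HEK293: membrane-impermeant cyanine dye fluoresces on binding dead-cell DNA; compound pinned 5 h post-seeding, plates held at 37 C, signal read repeatedly through 40 h.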

| Structure (SMILES) | Potency |
| --- | --- |
| CCCCCCCC/C=C\CCCCCCCCCCCC(=O)O | inactive |
| O=C1OC[C@H](Cc2cccc(O)c2)[C@H]1Cc1cccc(O)c1 | inactive |
| O=C1CC2CC1C1CCCC21 (stereo not drawn) | inconclusive: 54.9 µM [activator, partial curve, poor fit] |

test: A CellTox Green Cytotoxicity Assay to monitor cytotoxicity in HEK293 cells - 40 hour (AID 1224871); settings: CellTox Green fluorescence; series mostly up to 76.8 µM; further: nearly all actives have a fitted effect of over 45% in size
Summary of the method: as §1

| Structure (SMILES) | Potency |
| --- | --- |
| Cc1cc2c(OCC(CNC(C)(C)C)OC(=O)c3ccccc3)cccc2[nH]1 (stereo not drawn) | inconclusive: 26.8 µM [activator, single point] |
| O=C=Nc1cccc(C(F)(F)F)c1 | inconclusive: 61.2 µM [activator, single point] |
| CCN(CC)CCCN(c1ccccc1)C1Cc2ccccc2C1 | inconclusive: 23.9 µM [activator, partial curve, poor fit] |
| O=C1CC2CC1C1CCCC21 (stereo not drawn) | inconclusive: 54.9 µM [activator, single point] |
| CCCCOc1ccc(OCCCN2CCOCC2)cc1 | inactive |
| CC1=C(C=O)C(C)(C)CCC1 | inconclusive: 21.9 µM [activator, single point] |
| CCN(CC)CCOC(=O)C(Cc1cccc2ccccc12)CC1CCCO1 (stereo not drawn) | inconclusive: 26.8 µM [activator, single point] |
